Read-outs that look alike come from different tables or passages of the source. Where a SMILES comes first, the peptide text is derived from it. [ ]: non-standard residue; d: D form. The star is where a group is joined. pY = N[C@@H](Cc1ccc(OP(=O)(O)O)cc1)C(=O)O; Hexanoyl = CCCCCC(=O)*; Ahx = NCCCCCC(=O)O
What was measured:
[1] = tested on: subjects with mild to moderate AD; assay: Phase 2 ACT-AD study, adverse events; assay type: in vivo, human
Experimental: An independent Data Safety Monitoring Board conducts periodic review and assessments of unblinded safety data (AEs, labs, ECG, etc.) throughout the study to ensure the safety of study subjects.
Subjects are analyzed based on actual treatment received.

[2] = tested on: subjects with mild to moderate AD; assay: Phase 2 ACT-AD study, ADCS-CGIC; assay type: in vivo, human; conditions: mITT
From the text: The ADCS-CGIC consists of 3 parts: a guided baseline interview administered to the subject and caregiver/support person, a follow-up interview administered to the subject and caregiver/support person, and a clinician's rating review (Schneider, 1997). At study start, using the ADCS-CGIC baseline form as a guideline, the ADCS-CGIC rater obtains an integral clinical impression of the subject's status, can apply any formal testing at his/her discretion, and take personal notes regarding the subject's condition; these serve as a reference for future change ratings. The ADCS-CGIC is administered by an experienced clinician who remains independent of the subject's safety, cognitive and functional outcomes, and is trained and certified for this study. The ADCS-CGIC rater ideally remains the same individual for all ADCS-CGIC ratings.
ADCS-CGIC assessments are performed adjacent to ADAS-Cog11 and COWAT assessments pre-dose at Visit 2b (Baseline/Day 1), post-dose at Visit 5 (Week 12), and post-dose at Visit 8/ET (Week 26).
(§1) Secondary analyses include an evaluation of the correlation of ERP P300 latency with cognition/executive memory function, and comparison of treatment and placebo for the Global Statistical Test (GST), ADAS-Cog11, ADCS-CGIC, and ADCS-ADL23.

[3] = tested on: subjects with mild to moderate Alzheimer's disease; conditions: Example 1; 40 or 70 mg/day SC, 26 weeks
[4] = tested on: subjects with mild to moderate Alzheimer's disease; conditions: Example 3; open-label 70 mg/day SC, 26 weeks
[5] = tested on: subjects with mild to moderate AD; assay: Phase 2 ACT-AD study, ADCS-ADL23; assay type: in vivo, human; conditions: mITT
From the text: The ADCS-ADL23 (Galasko, 1997) is a 23-item assessment of functional impairment in terms of activities of daily living administered to the support person/caregiver. It comprises 23 questions about the subject's involvement and level of performance across items representing daily living. The questions range from basic to instrumental activities of daily living. Each item is rated from the highest level of independent performance to complete loss. The total score range is from 0 to 78, with lower scores indicating greater functional impairment. ADCS-ADL23 assessments are performed pre-dose at Visit 2b (Baseline/Day 1), post-dose at Visit 5 (Week 12), and post-dose at Visit 8/ET (Week 26).
as §1

[6] = tested on: healthy young subjects, healthy elderly subjects and AD subjects
AD subjects = assay: ERP P300 latency after an 8-day treatment cycle in AD subjects; assay type: in vivo, human; conditions: end of an 8-day treatment cycle
From the text: Event-related potential (ERP) P300 latency is a functional measure of working memory processing speed and executive function that highly correlates with cognition. […] In some embodiments, after a single dose of ATH-1017, the AD subject has improved P300 latency. In some embodiments, by the end of an 8-day treatment cycle, average ERP P300 latency across the AD treatment group improves by 73 milliseconds compared to placebo group. In some embodiments, this improvement is a statistically significant change compared to placebo group.

[7] = tested on: subjects with mild to moderate AD; assay: Phase 2 ACT-AD study, ADAS-Cog11; assay type: in vivo, human; conditions: for ADAS-Cog11 change from baseline (CFB): ATH-1017 monotherapy (no concurrent AChEI)
From the text: The ADAS-Cog11 is designed to measure cognitive symptom changes in subjects with AD (Rosen, 1984). The standard 11 items are word recall, commands, constructional praxis, naming objects and fingers, ideational praxis, orientation, word recognition, spoken language ability, comprehension of spoken language, word-finding difficulty, and remembering test instructions. The test includes 7 performance items and 4 clinician-rated items, with a total score ranging from 0 (no impairment) to 70 (severe impairment). Therefore, higher scores indicate more severe cognitive impairment.
ADAS-Cog11 assessments are performed pre-dose at Visit 2b (Baseline/Day 1), and post-dose at approximately 1 hour (±30 minutes) at Visit 3 (Week 2), Visit 4 (Week 6), Visit 5 (Week 12), Visit 7 (Week 20), Visit 8/ET (Week 26), and Visit 9 (Safety follow-up; no dosing.
as §1

[8] = Conversion of prodrug ATH-1017 in plasma after SC injection; assay type: in vivo; conditions: in the plasma after SC injection
From the text: ATH-1017 is an experimental Alzheimer's disease (AD) treatment, formulated as a sterile solution for subcutaneous (SC) injection. […] ATH-1017 was developed as a water-soluble prodrug of ATH-1001 to allow SC dosing in aqueous vehicles. The active drug ATH-1001 acts as an agonist of the hepatic growth factor (HGF) receptor and its tyrosine kinase, MET. Central nervous system (CNS) MET expression is crucial in maintaining the healthy adult brain (Hawrylycz, 2015), and is reduced in AD, particularly in the hippocampus (Hamasaki, 2014). The HGF/MET system presents a therapeutic target to treat neurodegeneration and restore cognitive function in AD.

[9] = tested on: subjects with mild to moderate AD; assay: Phase 2 ACT-AD study, ERP P300 latency; conditions: for P300 Latency change from baseline (CFB): ATH-1017 monotherapy (no concurrent AChEI)
[10] = 26 weeks, monotherapy, post hoc, mITT

CCCCCC(=O)N[C@@H](Cc1ccc(OP(=O)(O)O)cc1)C(=O)N[C@H](C(=O)NCCCCCC(N)=O)[C@@H](C)CC [ATH-1017] (Hexanoyl-[pY]-Ile-[Ahx]-NH2)
subjects who developed treatment related Adverse Events ([1]; 40 mg/day ATH-1017 treated group): 23 subjects
subjects who developed treatment related Adverse Events ([1]; 70 mg/day ATH-1017 treated group): 24 subjects
adverse events relative to AChEIs ([1]; preliminary analysis): without the significant adverse events associated with AChEIs
most frequent Adverse Event ([1]; sometimes with transient, asymptomatic increases in absolute eosinophil count): injection site reaction
treatment related Serious Adverse Events ([1]; whole study): No treatment related Serious Adverse Events were observed
secondary endpoint ADCS-CGIC, treated subjects compared with placebo [2]: not significant
achievement of study endpoints [3]: achieves one or more of the primary, secondary, or exploratory endpoints
safety and tolerability [3]: acceptable safety and tolerability
achievement of study endpoints [4]: achieves one or more of the primary, secondary, or exploratory endpoints
safety and tolerability [4]: acceptable safety and tolerability
secondary endpoint ADCS-ADL23, treated subjects compared with placebo [5]: not significant
injection site reactions (pain, pruritus, and/or erythema), severity ([6]; human clinical studies, SC): mild in nature
safety and tolerability ([6]; single SC 2, 6, 20, 40, 60, 90 mg healthy young, 20, 40, 60, 80 mg SC OD 9 days healthy elderly, 40 mg SC OD 9 days AD subjects): safe and well tolerated
improvement of average ERP P300 latency compared to placebo group (AD subjects): 73 milliseconds
ADAS-Cog11 compared with placebo [7, 10]: −3.3 points
ADAS-Cog11 change from baseline (CFB) ([7]; W2, post hoc, mITT): −1.4
ADAS-Cog11 change from baseline (CFB) ([7]; W6, post hoc, mITT): −2.1
ADAS-Cog11 change from baseline (CFB) ([7]; W12, post hoc, mITT): −1.5
ADAS-Cog11 change from baseline (CFB) ([7]; W20, post hoc, mITT): −1
ADAS-Cog11 change from baseline (CFB) ([7]; W26, post hoc, mITT): 0.9
secondary endpoint ADAS-Cog11, treated subjects compared with placebo ([7]; mITT): not significant
effect on ADAS-Cog11 scores, in words ([7]; patients not receiving concurrent AChEI therapy): qualitatively stabilized or improved
conversion of prodrug to active drug [8]: rapidly converted to the active drug ATH-1001
primary endpoint: statistically significant change in ERP P300 Latency versus placebo ([9]; 26 weeks, mITT, MMRM, pooled 40 mg and 70 mg dose groups): did not meet the primary endpoint
change in ERP P300 compared to placebo [9, 10]: −28 milliseconds
P300 Latency change from baseline (CFB) ([9]; W2, post hoc, mITT): -19.1 ms
P300 Latency change from baseline (CFB) ([9]; W6, post hoc, mITT): -10.8 ms
P300 Latency change from baseline (CFB) ([9]; W12, post hoc, mITT): -10.1 ms
P300 Latency change from baseline (CFB) ([9]; W16, post hoc, mITT): -17.6 ms
P300 Latency change from baseline (CFB) ([9]; W20, post hoc, mITT): -5.8 ms
P300 Latency change from baseline (CFB) ([9]; W26, post hoc, mITT): -10.7 ms
performance of monotherapy relative to AChEIs ([9]; preliminary analysis): performed similarly as monotherapy with AChEIs
effectiveness as monotherapy versus combination with AChEI therapy ([9]; preliminary results, post hoc analysis, mITT): more effective as a monotherapy than in combination with AChEI therapy

Source: patent publication US20250170203A1, “Methods of Treating Alzheimer's Disease” (Athira Pharma, Inc., priority 2021, published 2025)
